Laboratory results as given in paper PMC4336329 (PLoS ONE, 2015).
About 2,200 (0.71%) of roughly 310,000 compounds showed an effect of 50% or more. Effects have a minus sign here. Some of the results follow.

target: human ether-à-go-go-related gene (hERG) potassium channel (human, UniProt Q12809); assay: primary screen, population patch clamp on CHO cells stably expressing hERG
Sequence (Q12809 whole entry, looked up): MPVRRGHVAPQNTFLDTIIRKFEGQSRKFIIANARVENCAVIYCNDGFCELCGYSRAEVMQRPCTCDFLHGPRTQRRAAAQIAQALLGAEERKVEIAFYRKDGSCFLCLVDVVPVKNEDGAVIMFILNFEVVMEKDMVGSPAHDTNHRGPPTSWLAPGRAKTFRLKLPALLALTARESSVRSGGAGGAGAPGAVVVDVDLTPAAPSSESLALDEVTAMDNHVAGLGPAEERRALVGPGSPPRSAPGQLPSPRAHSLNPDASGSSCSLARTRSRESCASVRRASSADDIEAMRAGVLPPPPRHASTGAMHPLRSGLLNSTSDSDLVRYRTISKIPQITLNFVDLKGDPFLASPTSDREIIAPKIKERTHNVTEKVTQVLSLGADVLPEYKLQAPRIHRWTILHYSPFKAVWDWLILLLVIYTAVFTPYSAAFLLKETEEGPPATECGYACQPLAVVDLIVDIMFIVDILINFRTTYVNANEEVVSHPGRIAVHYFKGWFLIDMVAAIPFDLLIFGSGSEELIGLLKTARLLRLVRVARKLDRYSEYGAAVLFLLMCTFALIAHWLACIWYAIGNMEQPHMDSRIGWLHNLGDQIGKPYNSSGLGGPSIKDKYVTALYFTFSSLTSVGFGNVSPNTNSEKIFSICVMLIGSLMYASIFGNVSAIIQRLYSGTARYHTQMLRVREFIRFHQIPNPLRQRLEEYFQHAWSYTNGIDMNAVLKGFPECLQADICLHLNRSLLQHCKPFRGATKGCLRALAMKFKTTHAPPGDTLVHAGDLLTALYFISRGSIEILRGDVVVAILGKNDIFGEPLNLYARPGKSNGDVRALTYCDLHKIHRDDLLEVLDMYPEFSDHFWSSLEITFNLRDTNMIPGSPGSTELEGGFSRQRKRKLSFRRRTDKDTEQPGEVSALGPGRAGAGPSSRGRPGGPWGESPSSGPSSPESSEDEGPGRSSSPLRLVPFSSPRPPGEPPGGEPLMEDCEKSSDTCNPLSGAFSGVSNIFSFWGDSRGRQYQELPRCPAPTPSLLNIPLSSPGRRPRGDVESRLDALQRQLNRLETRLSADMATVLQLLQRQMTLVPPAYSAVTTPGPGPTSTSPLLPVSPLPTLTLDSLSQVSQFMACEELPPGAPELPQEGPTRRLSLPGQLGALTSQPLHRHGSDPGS

SMILES | hERG current change (%, negative = inhibition) at 1uM [%]
Cc1ccc(C)c(CN2C(=O)CSc3ccc(C(=O)NCCN4CCOCC4)cc32)c1 | 20.1
O=C(NC(CC(=O)N1CCN(c2ccccc2O)CC1)c1ccccc1)c1ccccc1Cl (stereo not shown) | -15.6
Cc1ccc2c(CC(=O)N3CCOCC3)coc2c1 | 2.04
COc1ccc(N(CC(=O)Nc2ccccc2OC)S(=O)(=O)c2ccccc2)cc1Cl | 14.2
Cc1c(C)n(Cc2ccccc2)c2ccc(C(=O)NCCN3CCOCC3)cc12 | 11.9
O=C(c1ccc2oc(CCc3ccccc3)nc2c1)N1CC[C@H](O)C1 | 11.3
CCC(C)c1ccccc1NC(=O)C(C)OC(=O)c1ccco1 (stereo not shown) | -11.2
Cc1ccc(S(=O)(=O)N2CCCC2C(=O)OCC(=O)Nc2ccc3c(c2)OCO3)cc1 (stereo not shown) | 10.8
O=C(C1CCCN1C(=O)c1cccs1)N1CCN(S(=O)(=O)c2ccc(F)cc2)CC1 (stereo not shown) | 13.8
COc1cc2c(cc1OC)-c1cc(Nc3ccccc3Br)nc(=O)n1CC2 | 14.8
CCc1ccc2c(c1)C(NC(C)=O)C(=O)N2CC (stereo not shown) | 10.8
COCCn1ccc2c(OCC(=O)NCCc3ccc(OC)c(OC)c3)cccc2c1=O | -11.2
FC(F)(F)c1cccc(Sc2cc(C(F)(F)F)nc(-c3ccccn3)n2)c1 | 8.02
CCOC(=O)c1cc(-c2ccc(F)cc2)n(CCC(=O)NC2CCN(Cc3ccccc3)CC2)c1C | -26
CNc1cc(=O)n(C)c(=O)n1-c1ccccc1 | 13.3
Cc1[nH]c2ccccc2c1/C=C(\C#N)C(=O)NCc1ccccc1 | 13.6
COc1cc(OC)cc(C(=O)NC(C(=O)NCc2ccccn2)C(C)C)c1 (stereo not shown) | 10.7
CCCCNC(=O)N1CCOCCOCCN(C(=O)NCCCC)CCOCCOCC1 | 7.75
CN1CCC(N(C)C(=O)c2cc(-c3ccccc3Cl)nc3ccccc23)CC1.Cl | -48.1
CCCN(CC(=O)Nc1ccccc1OC)C(=O)c1cccc(S(=O)(=O)NCc2ccccc2)c1 | 11.3
Nc1nc2nccc(-c3cccnc3)n2n1 | 13.6
CC(C)(C)CC(C)(C)NC(=O)/C=C/C(=O)O | 11.1

SMILES | hERG current change (%, negative = inhibition) at 1uM [%]
COc1cc(C(=O)ONC(=O)c2ccc(OC(F)F)cc2)cc(OC)c1OC | 16.6
CC1CN(C(=O)COC(=O)c2ccc(C#N)cc2)CC(C)O1 (stereo not shown) | 10.1
CC(=O)c1cc(-c2ccc(F)cc2)n(CCC(=O)Nc2cccc(C)n2)c1C | 15
Cc1cc(NCCCn2ccnc2)n2c(nc3ccccc32)c1C#N | 9.83
COc1ccc(OCC(=O)OCC(=O)NCc2ccc(F)cc2)cc1 | 7.78
O=C(Cc1ccc(Cl)cc1)NNC(=O)Nc1cccc2ccccc12 | 16.7
O=C(O)C1C2CCC(O2)C1C(=O)NC1CCCCC1 (stereo not shown) | 6.99
Cc1ccc(N2C(=O)C3NN=C(C(=O)OCc4ccccc4)C3C2=O)c(C)c1 (stereo not shown) | 6.13
N#CCCN1CCN(S(=O)(=O)c2ccc(S(=O)(=O)NC3CC3)cc2)CC1 | 5.87
CCCc1cc(C(=O)N2CCN(c3ccc(C(F)(F)F)cn3)CC2)sc1C | -14.8
O=C(Cc1ccc([N+](=O)[O-])cc1)N1CCN(c2ccc([N+](=O)[O-])cc2)CC1 | -82.5
N=c1oc2cc(O)ccc2cc1C(=O)Nc1ccc(Br)cc1 | 2.13
COc1ccc(OC)c(NC(=O)CCN2C(=O)c3cccc([N+](=O)[O-])c3C2=O)c1 | 17
OCCN(CCCn1c(-c2ccncc2)nc2ccccc21)c1nc(CN2CCCCC2)cs1 | 20.9
Cc1cc(OCCOCCN(C)CCO)cc(C)c1Cl | 3.39
Cc1c(NC(=O)c2ccc(F)cc2)c(=O)n(-c2ccccc2)n1C | 8.93
Cc1ccc(NC(=O)CN2CCCC2)cc1Br.Cl | 7.18
Cc1ccc(N2CCN(C(=S)Nc3ccccc3C)CC2)cc1 | 16.2
Cc1ccc(C(=O)Nc2sc(C(=O)N(C)C)c(C)c2C#N)cc1 | 11.6
Cc1cccc(NC(=O)c2ccc(C3SCC(=O)N3CCc3ccccc3)cc2)c1C (stereo not shown) | 7.44
COc1ccc(-n2nc(C(=O)NCC(=O)N3CCCCC3)c3ccccc3c2=O)c(OC)c1 | 15.2
COc1ccc(CN(C)c2nc(-c3cccnc3)nc3ccccc23)cc1OC | 25.3

SMILES | hERG current change (%, negative = inhibition) at 1uM [%]
CC(=O)NN1CCc2cc3ccc(C)cc3nc21 | 6.95
CCCNC(=O)c1cc(-c2ccccc2)c(N2CCCCC2)s1 | 16.8
CCOC(=O)c1c(-c2cccs2)csc1N | 17
COc1cccc(N2CCN(c3ccc([N+](=O)[O-])cn3)CC2)c1 | 12
COC(=O)C(=C/C=C/c1cccnc1)C(=O)OC | 16.6
COC(=O)c1ccc(NC(=O)c2ccc(CN3CCOCC3)cc2)cc1 | 4.41
CCN1CCN(C(c2ccc(OC)cc2)C(O)C(=O)c2c[nH]c3ccccc23)CC1 (stereo not shown) | -64.4
COc1cccc(N2CCN(C3OC(=O)c4ccccc43)CC2)c1 (stereo not shown) | -8.54
Cl.Clc1cccc(Cl)c1CNCCCSc1ncccn1 | 6.67
CC(=O)OC1(Cc2ccccc2)CN2CCC1c1ccccc12.Cl (stereo not shown) | 4.89
Cc1ccc2c(c1)N(CCC(=O)NCCCN1CCCC1)C(=O)CO2 | 11.8
O=c1cccc2n1C[C@@H]1C[C@@H]2CN(CC(O)c2ccc([N+](=O)[O-])cc2)C1 (stereo partly shown) | -2.18
COc1ccc(OC)c(/C=C/c2ccc3cccc(O)c3n2)c1 | 17.3
O=C(Nc1cccc(Cl)c1)C1CC1c1ccccc1 (stereo not shown) | 5.08
COc1ccc(S(=O)(=O)N2CCC(C(=O)NCC3CCCCC3)CC2)cc1 | 6.42
O=C(O)C(O)C(O)C(=O)O.O=C(c1ccc(F)cc1)C1CCN(CCn2c(=O)[nH]c3ccccc3c2=O)CC1 | -9.52
COc1ccc(C(=O)CN2C(=O)C(C)(C)Oc3ccc(C(=O)N4CCCCCC4)cc32)cc1 | 4.11
CCN(CC)S(=O)(=O)c1ccc(Cl)c(C(=O)OCC(=O)c2c(N)n(C)c(=O)n(C)c2=O)c1 | 1.11
COc1ccc(OC)c(C2C(C(C)=O)=C(O)C(=O)N2c2ccc(F)cc2)c1 (stereo not shown) | 12.7
O=C(O)CSc1nc2sc3c(c2c(=O)n1-c1ccccc1)CCC3 | 18
COc1ccc(C2CC(=O)C=C(O)C2)cc1 (stereo not shown) | -3.04
Cc1onc(-c2c(F)cccc2Cl)c1C(=O)N1CCOC12CCCCC2 | -4.95

SMILES | hERG current change (%, negative = inhibition) at 1uM [%]
CN(Cc1ccccc1)C(=O)Cn1c(=O)oc2cc(S(=O)(=O)N3CCCC3)ccc21 | 15.2
CC(c1n[nH]c(=S)n1-c1ccc(Cl)cc1)N(C)C (stereo not shown) | 6.29
c1ccc(-n2c3ccccc3c3ccccc32)cc1 | 20.5
O=c1c2ccccc2nc(Cc2ccccc2)n1-c1cccc(O)c1 | 2.73
Cc1ccn(-c2n[nH]c(C)c2[N+](=O)[O-])n1 | 16.5
O=C(c1ccc(Cl)cc1)c1c[nH]c(C(=O)NNc2ccccc2)c1 | 13.4
Cc1[nH]c2ccc(OC(F)(F)F)cc2c1CCNCc1cccc([N+](=O)[O-])c1 | 1.7
O=C1CN(C(=O)/C=C/c2ccco2)c2ccccc2N1 | -9.24
O=c1[nH]c(C2CCCN(S(=O)(=O)c3ccccc3)C2)nc2c1nnn2Cc1ccccc1F (stereo not shown) | 7.47
CCCC(=O)NC(c1ccccc1Cl)c1c(O)ccc2ccccc12 (stereo not shown) | 12.3
CCN1CCN(c2ncnc3scc(-c4ccc(OC)cc4)c23)CC1 | -18.4
CCOc1ccc(N2CC(C(=O)Nc3nnc(CC)s3)CC2=O)cc1 (stereo not shown) | -27.1
CC(C)N(C(=O)C1CC(=O)OC12CCCCC2)C(C)C (stereo not shown) | -6.26
Cc1ccsc1/C=N/NC(=O)CNC(=O)c1c(F)cccc1Cl | 17.7
COc1ccc(C2=NNC(c3cccs3)=Nc3ccc(OC)cc32)cc1 | 15.4
CCCN(CCC)S(=O)(=O)c1ccc(NS(=O)(=O)c2ccc(F)cc2)cc1 | 7.38
CN(C)Cc1c(C(=O)N/N=C/c2ccco2)nnn1-c1nonc1N | 0.524
O=S(=O)(Nc1ccc(F)cc1)c1cccc2nsnc12 | 9.02
CN(C)c1ccc(-c2nnc(-c3cccnc3)o2)cc1 | 10.5
COc1ccc(CN(Cc2ccco2)S(=O)(=O)c2ccc(S(=O)(=O)N3CCCC3)cc2)cc1 | -4.56
Cc1cc(NS(=O)(=O)c2ccc(NC(=O)COc3c(C)cc(Br)cc3C)cc2)no1 | 13.5
COCCN(C(=O)C1CC(=O)N(Cc2ccccc2)C1)c1nc(-c2ccc([N+](=O)[O-])cc2)cs1 (stereo not shown) | 11.1
